The supplement of paper PMC4466236
Whole data set: some 33,000 sequences, median “E-score (dimensionless, -0.5 to 0.5)” near -0.058, cut for the highest 2% near 0.35. The list shows a part of the results.

system: MvaT; experiment: PBM 8-mer E-score (mean of HK and ME arrays) (E-score (dimensionless, -0.5 to 0.5)); higher = stronger relative binding preference; most listed sequences are background and not binding sites
How it was run: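 Full-length P. aeruginosa MvaT, with glutathione S-transferase fused to its N-terminus (cloned into pTH6838 by isothermal assembly), was tested by protein binding microarray using a previously described protocol. Two universal double-stranded 60-mer arrays (ME and HK) were used, each with a constant 25-mer primer region and a variable 35-mer region covering all 8-mers. The rank-based 8-mer E-score (-0.5 to 0.5) is the mean of the two arrays, parsed with a custom Python script.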

Going from ATCATCTG to GAACTAAA, the “PBM 8-mer E-score” value rises from -0.0345 to 0.338.

Going from AGCTTGAA to TCAGACCA, the “PBM 8-mer E-score” value falls from -0.0413 to -0.188.

Compared with CCTGGCAA, GGCCTCGA is lower in “PBM 8-mer E-score” value: -0.122 for the first, -0.176 for the second.

Going from AGCTCCAA to AGGCGCGA, the “PBM 8-mer E-score” value rises from -0.128 to -0.0635.

Compared with GCTTCCCC, ATCAACCC is higher in “PBM 8-mer E-score” value: -0.258 for the first, -0.0228 for the second.

Compared with TCAAGGGA, ATTACCGC is higher in “PBM 8-mer E-score” value: -0.0771 for the first, 0.16 for the second.

First: GTCACTAA
Second: CATTTCCG
The “PBM 8-mer E-score” value of the first is lower: -0.0591 for the first, -0.024 for the second.

Going from AAGGGTGC to TAGTCTCA, the “PBM 8-mer E-score” value rises from -0.226 to -0.0252.

Compared with ACCCCACA, CTCGGAGC is lower in “PBM 8-mer E-score” value: -0.211 for the first, -0.253 for the second.

Going from AACCTACT to CAAAAAGA, the “PBM 8-mer E-score” value rises from -0.0157 to 0.17.

Compared with CGTTAGGC, ACCCAGAG is higher in “PBM 8-mer E-score” value: -0.238 for the first, -0.187 for the second.

Going from CTACGACA to CCCGCCAG, the “PBM 8-mer E-score” value rises from -0.167 to -0.144.

First: AGAGTTCA
Second: CATTTGGA
The “PBM 8-mer E-score” value of the first is higher: 0.0674 for the first, 0.0487 for the second.

Going from AACATATA to AGGGCTGG, the “PBM 8-mer E-score” value falls from 0.419 to -0.312.

Going from CTAAGTTC to GACCCGTC, the “PBM 8-mer E-score” value falls from 0.232 to -0.265.

Compared with CGGGGGGA, AATGTCTA is higher in “PBM 8-mer E-score” value: -0.266 for the first, 0.0927 for the second.

Compared with TTGCAAAA, GGAGATCC is lower in “PBM 8-mer E-score” value: 0.182 for the first, -0.228 for the second.

Compared with CAAGCAAG, AATGTTAA is higher in “PBM 8-mer E-score” value: -0.132 for the first, 0.387 for the second.

First: AGACCGCA
Second: ACTGCGAT
The “PBM 8-mer E-score” value of the first is lower: -0.125 for the first, -0.00892 for the second.

Going from CACCGACC to CCTAGGCG, the “PBM 8-mer E-score” value falls from -0.165 to -0.243.

Compared with TTACTAAA, GTATTCCA is lower in “PBM 8-mer E-score” value: 0.312 for the first, 0.0824 for the second.

Going from CGAAGTGC to CGTGCAGC, the “PBM 8-mer E-score” value rises from -0.158 to -0.137.

Going from ATAATGGA to ACACAACC, the “PBM 8-mer E-score” value falls from 0.238 to 0.129.

Compared with GTCAGAAA, CATGATTC is lower in “PBM 8-mer E-score” value: 0.0816 for the first, -0.0134 for the second.

First: GGCAAGTA
Second: AATAAAAC
The “PBM 8-mer E-score” value of the first is lower: 0.0346 for the first, 0.341 for the second.

Compared with ATACTATG, ACATGCTG is lower in “PBM 8-mer E-score” value: 0.174 for the first, 0.0183 for the second.

First: GGGGGCCA
Second: ATTACTAA
The “PBM 8-mer E-score” value of the first is lower: -0.312 for the first, 0.29 for the second.

Going from ACCCATTC to CTACACAC, the “PBM 8-mer E-score” value rises from -0.0842 to -0.042.

First: AATAAGCG
Second: CCCGTAGC
The “PBM 8-mer E-score” value of the first is higher: 0.157 for the first, -0.212 for the second.

Going from AATTCACA to CAACGTTA, the “PBM 8-mer E-score” value falls from 0.206 to 0.205.

Going from GACGGGGC to GTATTGGA, the “PBM 8-mer E-score” value rises from -0.19 to 0.112.

First: GATTGAGA
Second: AAGGTTGG
The “PBM 8-mer E-score” value of the first is higher: -0.0343 for the first, -0.0789 for the second.

Going from CTTAGTCA to AAGCTACG, the “PBM 8-mer E-score” value falls from -0.012 to -0.0717.

Compared with CCACTCCG, GATAGTCC is higher in “PBM 8-mer E-score” value: -0.297 for the first, -0.122 for the second.

First: AACGATAC
Second: GCATCGCA
The “PBM 8-mer E-score” value of the first is higher: -0.0307 for the first, -0.0544 for the second.

Going from AATTAGAT to GCCGAAAC, the “PBM 8-mer E-score” value falls from 0.284 to -0.176.

Going from CCACGTAA to GCAATGCC, the “PBM 8-mer E-score” value rises from -0.141 to -0.14.

First: CCTAAGAA
Second: GTCCCCCA
The “PBM 8-mer E-score” value of the first is higher: -0.00127 for the first, -0.286 for the second.

Going from ACCGGATC to ATATTCAA, the “PBM 8-mer E-score” value rises from -0.183 to 0.316.

First: GGACAAGA
Second: ATTTTACG
The “PBM 8-mer E-score” value of the first is lower: -0.0939 for the first, 0.218 for the second.

First: CGAATGAG
Second: AGACGAGA
The “PBM 8-mer E-score” value of the first is lower: -0.0483 for the first, 0.0123 for the second.

Compared with ATAGATCC, ACTGACAT is lower in “PBM 8-mer E-score” value: 0.0263 for the first, -0.0302 for the second.

Compared with CCTCTAAC, GGCTAAAA is higher in “PBM 8-mer E-score” value: -0.0962 for the first, 0.0463 for the second.

First: ACGATCCA
Second: TAATAACA
The “PBM 8-mer E-score” value of the first is lower: -0.112 for the first, 0.379 for the second.

Going from GCCATGTA to AACTTTAT, the “PBM 8-mer E-score” value rises from 0.0494 to 0.357.

Going from CAGTAATC to AGACAAAG, the “PBM 8-mer E-score” value rises from -0.0621 to -0.00692.

Going from CGCTTACA to GCCCATAA, the “PBM 8-mer E-score” value rises from 0.0083 to 0.166.

First: CTAACCTA
Second: GAATCGAC
The “PBM 8-mer E-score” value of the first is higher: -0.00243 for the first, -0.122 for the second.

Going from GAGACTGA to AATTACCA, the “PBM 8-mer E-score” value rises from -0.127 to 0.273.

First: AAGCTTCC
Second: GGGCAGGA
The “PBM 8-mer E-score” value of the first is higher: -0.0554 for the first, -0.333 for the second.

First: ATTATGTC
Second: GCTCACCA
The “PBM 8-mer E-score” value of the first is higher: 0.305 for the first, -0.236 for the second.

Going from TGTAGCAA to CTGTAGCC, the “PBM 8-mer E-score” value falls from 0.2 to -0.199.

Compared with ACCCTGCA, CAACATGG is higher in “PBM 8-mer E-score” value: -0.116 for the first, -0.0392 for the second.

First: ATGGCACG
Second: AACGATTA
The “PBM 8-mer E-score” value of the first is lower: 0.0112 for the first, 0.154 for the second.

First: ATCGGCGA
Second: ATACGTAT
The “PBM 8-mer E-score” value of the first is lower: -0.195 for the first, 0.217 for the second.

First: ATAGATTC
Second: GCTCCCCA
The “PBM 8-mer E-score” value of the first is higher: 0.169 for the first, -0.272 for the second.

First: CTTGGGCA
Second: AAAAGTGT
The “PBM 8-mer E-score” value of the first is lower: -0.176 for the first, 0.17 for the second.

First: GGGACGTA
Second: GCGTAGCA
The “PBM 8-mer E-score” value of the first is higher: -0.102 for the first, -0.179 for the second.

First: TAACCCTA
Second: ACCGCCGT
The “PBM 8-mer E-score” value of the first is higher: -0.0932 for the first, -0.106 for the second.

Compared with CATGCATG, AGTGGCCA is lower in “PBM 8-mer E-score” value: -0.103 for the first, -0.169 for the second.

Compared with AACTCATT, TAGTTTAA is higher in “PBM 8-mer E-score” value: 0.11 for the first, 0.398 for the second.

Going from GACCGGGC to CGAGACTC, the “PBM 8-mer E-score” value rises from -0.319 to -0.0802.

Going from GAGGTCGC to CTAAGTAG, the “PBM 8-mer E-score” value rises from -0.197 to 0.0522.

Compared with AGTACCGG, AGAATACC is lower in “PBM 8-mer E-score” value: -0.0846 for the first, -0.106 for the second.

Going from CTAGAGGA to GTAGTCAC, the “PBM 8-mer E-score” value rises from -0.093 to -0.034.

First: AGAGCTAG
Second: GCCTGCAA
The “PBM 8-mer E-score” value of the first is higher: -0.115 for the first, -0.153 for the second.

First: AGTGTAGC
Second: ACTTCGAT
The “PBM 8-mer E-score” value of the first is lower: -0.0909 for the first, 0.141 for the second.

Going from CGCTACTC to AAGGGGTG, the “PBM 8-mer E-score” value falls from -0.204 to -0.237.

First: AAAGAATC
Second: GATCTGCC
The “PBM 8-mer E-score” value of the first is higher: 0.124 for the first, -0.187 for the second.

First: ATACGATC
Second: CCGTTCCC
The “PBM 8-mer E-score” value of the first is higher: 0.0457 for the first, -0.148 for the second.

First: ACAGCAAT
Second: GAGCAGCA
The “PBM 8-mer E-score” value of the first is higher: 0.0951 for the first, -0.148 for the second.

First: AGCATGGG
Second: GAATGAGA
The “PBM 8-mer E-score” value of the first is higher: -0.0178 for the first, -0.156 for the second.

Compared with TTGCGAAA, AAGTTTCC is higher in “PBM 8-mer E-score” value: 0.126 for the first, 0.173 for the second.

First: AAGCAAGC
Second: AGTGAGCG
The “PBM 8-mer E-score” value of the first is lower: -0.177 for the first, -0.153 for the second.

Going from GTAAATAC to GGAGTGCA, the “PBM 8-mer E-score” value falls from 0.228 to -0.125.

Going from AATGTGCA to GAAAAGTA, the “PBM 8-mer E-score” value rises from 0.0599 to 0.203.

Compared with GCGATGAA, CTTCAAAC is higher in “PBM 8-mer E-score” value: 0.00423 for the first, 0.147 for the second.

Compared with AGCTAGTA, AACACGGT is lower in “PBM 8-mer E-score” value: 0.152 for the first, -0.238 for the second.

Compared with GAGGAGGC, CTGAAACA is higher in “PBM 8-mer E-score” value: -0.355 for the first, -0.0424 for the second.

First: ATGGTAGA
Second: AGTATTTA
The “PBM 8-mer E-score” value of the first is lower: 0.071 for the first, 0.33 for the second.

Going from AGCTAGCT to CTAACGGA, the “PBM 8-mer E-score” value rises from -0.268 to -0.0407.

Going from GGAACATA to CTTTCTTC, the “PBM 8-mer E-score” value rises from 0.00642 to 0.132.

First: CGATGTAG
Second: AACAAATT
The “PBM 8-mer E-score” value of the first is lower: -0.119 for the first, 0.228 for the second.

First: AGGATACG
Second: AGAAATAC
The “PBM 8-mer E-score” value of the first is lower: -0.0147 for the first, 0.157 for the second.

Compared with CCTCGCGA, AGGCGGTC is lower in “PBM 8-mer E-score” value: -0.2 for the first, -0.288 for the second.

Going from CGATGAAC to ACAAGTGG, the “PBM 8-mer E-score” value rises from -0.281 to -0.00133.
